Measured values from the supplement of paper PMC11417369.
The list shows a part of the results.

These sequences were tested on PfHDP1 homeodomain (GST-tagged) (assay: gcPBM binding intensity (ln(normalized median fluorescence intensity)); higher = stronger DNA binding).
In short: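 DNA-binding domains from P. falciparum, fused to GST and produced in E. coli, were put on an Agilent 4 × 180k double-stranded probe array for 1 h in 1× PBS holding 1% milk, 0.2 mg/ml BSA, 0.5% salmon testes DNA and 0.03% Triton X-100. Probes were primer-extended, 36 bp long and drawn from intergenic genomic regions, with negative controls included. After Alexa488 anti-GST antibody detection and a 488 nm scan, binding intensity was set as the highest Masliner-normalised natural-log median intensity across replicate spots of either probe orientation.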

Point of comparison: “TATATATATAATATATGTACTCATATTAAGAGATAC [XGTACX_site1354]”, “gcPBM binding intensity (ln)” value 7.4. Against it:
- TTTATTCTAAAATATTAAAAATGATTTGTTTTTTCA [CACACA_negctrl_site1751] — lower, 5.85
- TTATAAAAAAAAAAAAAAAAAAAAACCAATATAATA [CACACA_negctrl_site968] — lower, 6.03
- AGACAATTTTTTAGTACACACATATAGATATATAAA [CACACA_site6832] — lower, 6.62
- ATAATTATACAAAAGCGTACACGATATAAATCTACG [XGTACX_site8115] — lower, 6.31
- CTTAAATCCATAATATGTACTTAAAAAGAAAAAATA [XGTACX_site4765] — lower, 6.09
- TAATACTTAATGAACACATGCACATATACATAGTAT [TGCATGCA_site496] — higher, 8.25
- TGTTTCTAAGAATTTACACACAAAATATTTCTACAT [CACACA_site7846] — lower, 6.43
- AAAAAAAAAAATTGCACACAAAAAAAAAAAAAAAAA [CACACA_site2073] — higher, 9.92
- TTAAAAATTAAAAGTAGTACATATAATATAAACATT [XGTACX_site424] — lower, 6.11
- TAATATTACATTTATTGTACTTTGTTTTTATTTTAT [XGTACX_site1605] — lower, 6.27
- TTTTTTTTTTTTTTTTGTACATATATATAAAAAATA [XGTACX_site2772] — lower, 6.53
- AATTATACTCACGTTACACACACACTAGATATATAT [CACACA_site6133] — higher, 7.6
- ATTGAAAAAATACAATGTACATAGTAATACAAAGAA [XGTACX_site4142] — lower, 7.17
- CCCACAATGGTTTATATACACACTGTTGCAAATTCT [CACACA_site3066] — higher, 9.76
- TATTGATAAAAAATATGTACATATATACATATATAT [XGTACX_site3821] — lower, 6.47
- ATATATATATATATATGTACGTAAACAAAAATTTAT [XGTACX_site6780] — higher, 9.43
- GTAATTAAGATATATACACACAAAGGCTATTAAATA [CACACA_site6604] — lower, 6.38
- TATATAACTACAAGAACACACATATAAATATAAATA [CACACA_site7210] — lower, 6.67
- ATGTATCGTAACAAATGTACAAGAGGATGTTTAGAC [XGTACX_site3355] — lower, 7.26
- GTATTTATATGATTAACACACATATGTGGATTAATA [CACACA_site1315] — lower, 6.48
- GATATATTTTGTTATGTAGATGTTGGTAGGAATTTT [GTGCAC_negctrl_site485] — lower, 6.56
- TCATAAAAAGGAATCTTTAAGATATTTTATAAGCTC [XGTACX_negctrl_site18] — lower, 6.12
- TTATAAATTTTTAATAGTACATAAAATTAAAGGTAA [XGTACX_site760] — lower, 6.39
- ATGTGATAATTTAGGAGTACTGTCATAAGCATTTCT [XGTACX_site3091] — lower, 6.28
- AGTGCATAATATTTATGTACGTATCACATATATTTT [XGTACX_site5166] — higher, 10.7
- AATAAATGTCTGTTAATGCACACGATATGTCTATAT [CACACA_site2351] — higher, 9.89
- TTTCTTTATTTATAATAATTTTTTATTAAAAATAGA [CACACA_negctrl_site1610] — lower, 5.95
- AAAAATAAAATAAAATAAAATAAAAATAAAGAAAAA [CACACA_negctrl_site808] — lower, 6.47
- AGTAGTCTGGAGAAAAGTACACAGTATCTGGTAACA [XGTACX_site2034] — lower, 6
- ACAAATAAAAAAATTACACACATATATAATATATAT [CACACA_site1361] — lower, 6.6
- ATTTGACACGTATATGCACACACCCGTAAGTGTCCA [CACACA_site8891] — higher, 10.3
- TATTAACTCAATAGCGCACACTTTTAATATTTTATA [CACACA_site4973] — higher, 7.56
- AAATATATATATATTACACACTATATATTTATTTAT [CACACA_site681] — lower, 6.49
- TTCATTAAAACGAATACACACATAAATATATAAAAG [CACACA_site4824] — lower, 6.62
- TATTATTTATATGATACACACGTACATATACACATA [CACACA_site9275] — lower, 6.57
- TGTATACCTTAATATACACACATACATATATATATA [CACACA_site8370] — higher, 9.01
- GGATATATTATATGTACACACATATATAACGGATAT [CACACA_site1309] — lower, 6.74
- CAACAAAAGAAACACACACACACAAACACAAAAAAA [CACACA_site3389] — lower, 6.85
- ATATATAAATATAGCATACACACAAAAAAATAAAAT [CACACA_site2332] — lower, 7.04
- ATATACATATTTTTGACACACATTAGGAAAATATAT [CACACA_site4123] — lower, 6.48
- ATGTAATAAATACTACGTACATATATATGTGTTAAT [XGTACX_site3265] — lower, 6.51
- TCTTTGGTATTTACATGTACATATTCTTAAAAACAT [XGTACX_site3124] — lower, 6.98
- TGTATAGTCTAAAGTTGTACAAAAAAAAAAAAAAAA [XGTACX_site5764] — lower, 6.44
- GAAAATAAAATATTAGTGCATTATTTGATCAATAAT — higher, 9.5
- TATTACTTAAATAAAAGTACATATAACATTTTAGTT [XGTACX_site196] — lower, 6.05
- AATAGTTGCTAAAGGTGTACAATACATTTATTAGAA [XGTACX_site2773] — lower, 6.66
- AAAAAAAAAAAAAACACACACACACGCATACACATA [CACACA_site7364] — lower, 6.87
- ATAAATAAAACAAATAGTACAATATAAAAAAAAAGG [XGTACX_site87] — lower, 6.74
- TATACAGATATATATACACACATATATATAAATACA [CACACA_site4383] — lower, 6.46
- AAGAGGATACACAATGTGCACTTTTTTTTTTTTTTT [GTGCAC_site9415] — higher, 8.35
- TATATATGTATATTTTGTACGTATTTATTTACATGA [XGTACX_site4584] — lower, 6.09
- AATGAGCTTTTTAAAAGTACTAAATATAAATAAATA [XGTACX_site3632] — lower, 6.29
- TATATTTATACTTATACACACATTATTGAATTAACC [CACACA_site934] — lower, 6.87
- TATAGGTATTTGTATACACACAAATGTATATATCTA [CACACA_site6713] — lower, 6.21
- AGTGTAAGCTAAGTGGTGCGTTGAATAAGGTTTTTT [GTGCAC_site9951] — lower, 7.09
- AAAAAATATGCATATACACACATATGTATAAATAAC [CACACA_site7090] — the same, 7.4
